Measurements published in PubChem BioAssay (NCATS).
Values joined by “and” are separate entries in the source; they are usually repeats but may differ in a detail not shown here. Identical values can stand only once. This list was built around the results that the source calls inconclusive (neither active nor inactive); the mix of calls is not that of the screen. Potencies beside an inconclusive call are fits to weak or partial responses and may not hold up. More than one record can exist for a structure, and the calls need not agree. Active and inactive are the calls of the source. Calls follow the shape of the dose curve; as a rule, active = well fitted curve in the direction sought with a large enough effect; inconclusive = small, poorly fitted or top-dose-only effect, or another doubt; inactive = no such curve, though single readings can be large; an effect the other way counts as inactive or inconclusive. Square brackets hold non-standard residues; d marks the D form. Peptide text beside a SMILES is read from it. * marks the point of attachment. Nva = CCC[C@H](N)C(=O)O; Cbz = O=C(OCc1ccccc1)*

Assays:
[1] = Viability qHTS for spleen associated tyrosine kinase inhibitor (SYKi) naive MV4-11 cells (AID 1963823); settings: MV4-11 AML viability, CellTiter-Glo luminescence, 72 h; viability (% of control): at 45 µM (top of the series); also: nearly all actives have a fitted effect of over 40% in size
In short: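 Luminescence from CellTiter-Glo, developed 10 min at room temperature, gave viability of MV4-11 cells never exposed to SYK inhibitor. Cells (500/well) had been incubated with compounds for 72 hr under standard culture conditions.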

[2] = Viability qHTS for spleen associated tyrosine kinase inhibitor (SYKi) drug resistant MV4-11 cells (AID 1963824); also: nearly all actives have a fitted effect of over 35% in size
In short: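 SYK-inhibitor-resistant MV4-11 AML cells were seeded at 500 per well onto compound and cultured 72 hours (37 °C, 5% CO2). CellTiter-Glo was then added, and after 10 min at room temperature, luminescence gave viability.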

[3] = Quantitative highthroughput screen to assess conditional lethalithy of NOMO1 cells grown in RPMI1640 with dialyzed fetal bovine serum (RPMI+ds) (AID 1963877); also: nearly all actives have a fitted effect of over 30% in size;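 as to Viability: 100% = DMSO control wells and 0% = empty wells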
In short: (§1)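 Each medium arm—HPLM with 10% dialyzed FBS, or RPMI1640 with 5 mM glucose and 10% untreated or dialyzed FBS—was screened against an 11-point, 3-fold compound titration for 48 h at 37 °C, with CellTiter-Glo luminescence as endpoint.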

[4] = Quantitative highthroughput screen to assess conditional lethalithy of NOMO1 cells grown in Human Plasma-Like Medium with dialyzed fetal bovine serum (HPLM+ds) (AID 1963878); settings: NOMO1 AML cells in HPLM+ds, CellTiter-Glo viability, 48 h; viability: at 45.8 µM (top of the series); also: nearly all actives have a fitted effect of over 35% in size;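 as to Viability: 100% = DMSO wells and 0% = empty wells on each plate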
In short: as §1

[5] = Quantitative highthroughput screen to assess conditional lethalithy of SEM cells grown in Human Plasma-Like Medium with dialyzed fetal bovine serum (HPLM+ds) (AID 1963882); also: nearly all actives have a fitted effect of over 35% in size
In short: as §1

[6] = Quantitative highthroughput screen to assess conditional lethalithy of SEM cells grown in RPMI1640 with dialyzed fetal bovine serum (RPMI+ds) (AID 1963884); settings: SEM B-ALL cells, RPMI+dialyzed FBS, CellTiter-Glo viability, 48 h; viability: at 45.8 µM (top of the series); also: nearly all actives have a fitted effect of over 35% in size;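 as to Viability: 100% = DMSO control wells and 0% = empty wells without cells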
In short: as §1

[7] = Cellular viability qHTS for adrenocortical cancer (ACC) cell line SW-13 (AID 1963989); settings: SW-13 ACC cells viability, CellTiter-Glo, 48 h; activity (max response): stronger effect = lower value; also: nearly all actives have a fitted effect of over 65% in size;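 as to activity (max response): cells grown in serum-free medium with ITS supplement; % is scaled to controls: 0 for no effect and ±100 for the full control effect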
In short: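 Luminescent ATP read-out (CellTiter-Glo, 20 min at room temperature) measured metabolically competent SW-13 cells after 48 h compound treatment. Final concentrations spanned up to 46 uM; bortezomib served as positive control.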

[8] = Quantitative highthroughput screen to assess conditional lethalithy of P12 Ichikawa cells grown in Human Plasma-Like Medium with dialyzed fetal bovine serum (HPLM+ds) (AID 1963879); settings: Potency: viability; also: nearly all actives have a fitted effect of over 35% in size
In short: as §1

[9] = Quantitative highthroughput screen to assess conditional lethalithy of P12 Ichikawa cells grown in RPMI1640 with dialyzed fetal bovine serum (RPMI+ds) (AID 1963880); settings: Potency: P12-Ichikawa viability; also: nearly all actives have a fitted effect of over 35% in size;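 as to Viability: 100% = DMSO wells and 0% = empty wells on each plate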
In short: as §1

[10] = Quantitative highthroughput screen to assess conditional lethalithy of P12 Ichikawa cells grown in RPMI1640 with untreated serum (RPMI+s) (AID 1963881); settings: Potency: viability; also: nearly all actives have a fitted effect of over 35% in size;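 as to Viability: 100% = DMSO wells and 0% = empty wells without cells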
In short: as §1

[11] = Quantitative highthroughput screen to assess conditional lethalithy of SEM cells grown in RPMI1640 with unreated serum (RPMI+s) (AID 1963883); settings: SEM B-ALL cells, CellTiter-Glo viability, 48 h; viability: at 45.8 µM (top of the series); also: nearly all actives have a fitted effect of over 35% in size;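 as to Viability: 100% = DMSO wells and 0% = empty wells without cells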
In short: as §1

[12] = Cellular viability qHTS for adrenocortical cancer (ACC) cell line NCI-H295R (AID 1963990); settings: CellTiter-Glo ATP luminescence, 48 h; activity change, negative = viability loss: at 46.1 µM (top of the series); also: nearly all actives have a fitted effect of over 60% in size;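 as to activity change, negative = viability loss: 0% = DMSO only wells and -100% = full killing with cytotoxic reference compound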
In short: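 IC50 and maximal efficacy derive from four-parameter logistic modelling of titration curves, with reads scaled between DMSO-only wells (0%) and doxorubicin hydrochloride (100% inhibition). Compounds spanned up to 46 uM over 48 h.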
Potency is read from the fitted curve at half-maximal effect; tags tell the direction and shape of the fitted curve.

Structure (SMILES)	Potency [1]	Potency [2]	Potency [3]	Potency [4]	Potency [5]	Potency [6]	activity (max response) [7]	Potency [7]	Potency [8]	Potency [9]	Potency [10]	Potency [11]	Potency [12]
Cc1ccc(O)c(C(CCN(C(C)C)C(C)C)c2ccccc2)c1 (centres undefined)	inconclusive: 0.0042 µM [cytotoxic, full curve, poor fit]	inconclusive: 33.2 µM [cytotoxic, partial curve, poor fit]	inconclusive: 5.26 µM [rising, single point]	inconclusive: 2.96 µM [rising, partial curve]	inactive	inactive							
CCCCCCCCCCCCCCCC(=O)O[C@H]1[C@@H](O)[C@@H](O)[C@@H]([C@H](NC(=O)[C@@H]2C[C@@H](CCC)CN2C)[C@H](C)Cl)O[C@@H]1SC	inconclusive: 18.6 µM [cytotoxic, partial curve]	active: 23.5 µM	inconclusive: 11.8 µM [cytotoxic, full curve]	inconclusive: 11.8 µM [cytotoxic, full curve]	inactive								
Cc1cnc(C(=O)NCCc2ccc(S(=O)(=O)NC(=O)NC3CCCCC3)cc2)cn1	inactive	inactive	inconclusive: 16.6 µM [cytotoxic, partial curve, poor fit]	inconclusive: 14.8 µM [cytotoxic, partial curve]			inactive: -1.95% and inactive: -7.3%						
CCOC(=O)c1ccc(C#Cc2ccc3c(c2)C(C)(C)CCS3)nc1	inconclusive: 11.9 µM [cytotoxic, partial curve] and active: 5.25 µM	inconclusive: 5.25 µM [cytotoxic, partial curve, poor fit]	inactive	inactive		inactive		inconclusive: 16.4 µM [cytotoxic, single point]					
NS(=O)(=O)c1cc2c(cc1Cl)NC(C(Cl)Cl)NS2(=O)=O (centres undefined)	inactive	inconclusive: 20.9 µM [cytotoxic, partial curve]	inactive			inactive			inactive	inactive			
CN(C)C1CCN(C(=O)c2ccc(NC(=O)Nc3nc(N4CCOCC4)nc(N4CCOCC4)n3)cc2)CC1	active: 25.2 nM and active: 37.2 nM	active: 35.5 nM and active: 59 nM	inconclusive: 0.0743 µM [cytotoxic, full curve]			active: 0.296 µM		active: 0.316 µM	inconclusive: 5.26 µM [cytotoxic, partial curve]	inconclusive: 0.264 µM [cytotoxic, full curve]	inconclusive: 0.105 µM [cytotoxic, full curve]	active: 0.166 µM	inconclusive: 4.47 µM [cytotoxic, partial curve]
CN(C)CCC=C1c2ccccc2C=Cc2ccccc21	inconclusive: 23.7 µM [cytotoxic, single point]	inconclusive: 26.6 µM [cytotoxic, single point]	inconclusive: 16.6 µM [cytotoxic, partial curve]		inconclusive: 23.5 µM [cytotoxic, single point]			inconclusive: 18.4 µM [cytotoxic, single point] and inconclusive: 31.6 µM [cytotoxic, single point]	inactive		inconclusive: 0.0935 µM [cytotoxic, full curve, poor fit]		inconclusive: 20.6 µM [cytotoxic, single point] and inconclusive: 28.2 µM [cytotoxic, single point]
COc1c(Cl)cc2c([nH]c3cnccc32)c1NC(=O)c1cccnc1C	active: 20.9 µM and inconclusive: 20.6 µM [cytotoxic, partial curve]	active: 18.6 µM and active: 20.6 µM	inconclusive: 0.0033 µM [rising, full curve, poor fit]	inactive	inactive							inconclusive: 0.166 µM [cytotoxic, full curve, poor fit]	
CCC[C@@H](C=O)NC(=O)[C@H](CC(C)C)NC(=O)[C@H](CC(C)C)NC(=O)OCc1ccccc1 (Cbz-Leu-Leu-[Nva]-aldehyde)	active: 0.742 µM	active: 0.934 µM	active: 2.64 µM		active: 2.35 µM	active: 1.48 µM			active: 3.32 µM				active: 1.58 µM
COc1cc(F)c(C(C)C)cc1-c1ccc(C(F)(F)F)cc1CN1C(=O)O[C@H](c2cc(C(F)(F)F)cc(C(F)(F)F)c2)[C@@H]1C	inconclusive: 7.42 µM [cytotoxic, partial curve]	inconclusive: 14.8 µM [cytotoxic, partial curve]	inactive	inactive	inactive								
Oc1ccc2ccccc2c1SSc1c(O)ccc2ccccc12	active: 5.9 µM and active: 11.6 µM	active: 5.25 µM and active: 9.2 µM	inactive		inconclusive: 29.6 µM [cytotoxic, single point]	inconclusive: 23.5 µM [cytotoxic, partial curve, poor fit]		inconclusive: 35.5 µM [cytotoxic, single point]	inactive	inconclusive: 26.4 µM [cytotoxic, single point]	inconclusive: 26.4 µM [cytotoxic, single point]	inconclusive: 20.9 µM [cytotoxic, partial curve]	active: 31.6 µM
Nc1nc2c(ncn2COCCO)c(=O)[nH]1	inactive	inactive	inconclusive: 37.2 µM [cytotoxic, partial curve, poor fit]		inconclusive: 14.8 µM [cytotoxic, partial curve]	inconclusive: 16.6 µM [cytotoxic, partial curve]			inactive	inactive	inactive	inconclusive: 18.7 µM [cytotoxic, partial curve]	
c1ccc2c(Cc3c[nH]c4ccccc34)c[nH]c2c1	inconclusive: 20.9 µM [cytotoxic, partial curve]	active: 20.9 µM	inconclusive: 23.5 µM [cytotoxic, single point]		inconclusive: 20.9 µM [cytotoxic, partial curve]			inconclusive: 35.5 µM [cytotoxic, single point]	inconclusive: 33.2 µM [cytotoxic, single point]	inconclusive: 33.2 µM [cytotoxic, single point]	inconclusive: 37.2 µM [cytotoxic, single point]	inconclusive: 26.4 µM [cytotoxic, partial curve, poor fit]	inconclusive: 25.1 µM [cytotoxic, single point]
CCCCCCCCCC(=O)N[C@@H](Cc1c[nH]c2ccccc12)C(=O)N[C@H](CC(N)=O)C(=O)N[C@@H](CC(=O)O)C(=O)N[C@@H]1C(=O)NCC(=O)N[C@@H](CCCN)C(=O)N[C@@H](CC(=O)O)C(=O)N[C@H](C)C(=O)N[C@@H](CC(=O)O)C(=O)NCC(=O)N[C@H](CO)C(=O)N[C@@H]([C@@H](C)CC(=O)O)C(=O)N[C@@H](CC(=O)c2ccccc2N)C(=O)O[C@@H]1C	inconclusive: 1.09 µM [cytotoxic, partial curve, poor fit] and inactive	inactive	inconclusive: 37.2 µM [cytotoxic, single point]						inactive	inactive	inconclusive: 37.2 µM [cytotoxic, single point]		
CN1CC(=O)NC1=NC(=O)Nc1cccc(Cl)c1	inactive	inactive	inactive	inactive							inactive		inactive
Nc1nc(OCc2ccccc2)c2[nH]cnc2n1	inconclusive: 18.6 µM [cytotoxic, partial curve]	active: 20.9 µM	inactive	inactive		inactive					inactive		
CN(C)c1ccc(C2Nc3ccc4ccccc4c3C3=C2C(=O)CC(C)(C)C3)cc1Br (centres undefined)	inconclusive: 16.6 µM [cytotoxic, partial curve]	inconclusive: 5.17 µM [cytotoxic, partial curve, poor fit]	inconclusive: 0.132 µM [cytotoxic, full curve, poor fit]		inactive				inactive	inactive	inactive	inactive	
Nc1ccc(C(=O)Nc2cccc(-c3nc(N4CCOCC4)c4oc5ncccc5c4n3)c2)cn1	inconclusive: 6.61 µM [cytotoxic, full curve]	active: 3.66 µM and inconclusive: 4.68 µM [cytotoxic, full curve]	inconclusive: 0.935 µM [cytotoxic, full curve]	inconclusive: 2.64 µM [cytotoxic, full curve]									inconclusive: 11.2 µM [cytotoxic, single point]
COc1cccc(-c2cc(=O)c3ccccc3o2)c1N	inconclusive: 13.2 µM [cytotoxic, partial curve] and inconclusive: 16.4 µM [cytotoxic, partial curve]	inconclusive: 16.6 µM [cytotoxic, partial curve]	inactive	inactive								inconclusive: 1.32 µM [rising, partial curve, poor fit]	inactive
CC(C(=O)O)c1ccc(-c2ccccc2)c(F)c1 (centres undefined)	inactive	inconclusive: 18.6 µM [cytotoxic, partial curve, poor fit]	inactive			inconclusive: 16.6 µM [cytotoxic, partial curve]			inconclusive: 16.6 µM [cytotoxic, partial curve]	inconclusive: 14.8 µM [cytotoxic, partial curve]	inconclusive: 10.5 µM [cytotoxic, partial curve]	inconclusive: 16.6 µM [cytotoxic, partial curve]	
